The subject of one test is KDM5D. Description: MALDI–TOF MS demethylation/+16 Da assay, KDM5D. Format: biochemical, human. The following applies: 90 min. The source says:
(§1) Fig. 2 Histone H2a fragments are KDM5 and KDM4 substrates. […] See Supplementary Table 6 and Supplementary Fig. 2 for assay conditions and quantification, respectively. […] 0-minute MS spectrum in black, 60/90-minute spectrum in red.
(§2) MS-based screening assays with peptides and calf thymus histones were as reported; see Supplementary Table 6 for conditions. Time course assays were based on reported procedures. In brief, equal volumes of the enzyme and substrate solutions were combined to initiate the reaction; 10 µL of 2% (v/v) formic acid (HCOOH) in ddH2O or 100% methanol was added to 10 µL of the reaction mixture to quench reactions at different time points. Unless otherwise stated, time course assays were carried out in triplicate. In some cases, LC–MS was used instead of MALDI-TOF MS to avoid a MALDI matrix induced artefact with the hydroxylated product (Supplementary Fig. 16). […]
(§3) Supplementary Figure 2 Histone H2a peptide fragments are substrates of KDM4s and KDM5s.
(§4) 2 for representative corresponding MALDI–TOF MS traces. Bar graphs comparing % product format ion (+16 Da and demethylation) of H2a(1–20)R3me2a by (a) K DM5 A–D (after 90 minutes) and (b) KDM4A–E ( a ft er 60 minutes), analysed by MALDI– TOF MS. n = (a) 2, (b) 3 (independent assays). See Supplementary Table 6 for assay condit ions. See Figure S13 A 1 for a positive control.
(§5) (also on this page, place not known: formation KDM5A–D (after MALDI–TOF conditions. Figure S13A1 KDM4A KDM4B KDM4C KDM4D KDM4E 80% product formation KDM5A KDM5B KDM5C KDM5D % product formation) […]
(§6) [ E nz ym e] [Peptide] [2OG] [Ascorbate] [(NH4)2F e(S O4)2] [TCEP] Buffer pH7.5 Enzyme Cognate substrate (mM) (mM) (mM) (mM) (mM) (mM) [HE PE S]
(§7) Supplementary Table 6 Summary of MS assay conditions for substrate screening. These conditions enabled efficient turnover of established substrates. Reactions were carried out at 37 °C unless otherwise st ated. […]

The test system of the next test is KDM4B. Nature of the test: MALDI–TOF MS demethylation/+16 Da assay, KDM4B. Format: biochemical, human. The conditions noted are these: 60 min.
Source text: as §1, §2, §3, §4, §5, §6, §7

Another test concerns the target T1, KDM4E (Homo sapiens, UniProt B2RXH2).
T1 construct: KDM4E1–337; made in house; host or cells: E. coli
T1 sequence (B2RXH2 1-337): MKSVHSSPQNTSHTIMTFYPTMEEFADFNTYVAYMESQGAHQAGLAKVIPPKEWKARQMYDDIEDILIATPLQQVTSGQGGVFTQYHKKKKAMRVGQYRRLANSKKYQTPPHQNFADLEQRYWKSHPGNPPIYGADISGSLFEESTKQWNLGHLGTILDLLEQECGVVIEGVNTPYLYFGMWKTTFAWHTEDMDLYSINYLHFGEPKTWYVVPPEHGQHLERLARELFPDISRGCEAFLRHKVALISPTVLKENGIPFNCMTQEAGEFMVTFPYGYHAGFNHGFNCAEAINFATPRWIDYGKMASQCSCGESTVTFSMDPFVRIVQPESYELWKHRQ
Description: MALDI–TOF MS demethylation/+16 Da assay, KDM4E. The following applies: 60 min. The test is classed as biochemical.
Source text: as §1, §2, §3, §4, §5, §6, §7

For another test, the system named is KDM4A1–359. Description: MALDI–TOF MS product formation, KDM4A1–359. The test is classed as biochemical, human. The conditions noted are these: 1 µM enzyme, 10 µM peptide, 60 min. Here is the method:
(§8) Supplementary Figure 5 H2aR3me2a is a substrate of full length KDM4A. (a) Representative MALDI–T OF
(§9) MS (60 -minute incubation) (from top to bottom) K DM4A 1–1064, KDM4A1–35 9 and KDM4E1–337 w it h H 2 a( 1–
(§10) Representative data are shown from n = 3 (independent assays). Charge state of labelled ions: [MH]+. (b)
(§11) Bar graph comparing % product format ion of H2a(1 –20)R3me2a by KDM4A1–10 64, KDM4A1–359 and KDM4E1–
(§12) 33 7, analysed by MALDI–TOF MS. n = 2/3 (independent assays). Conditions: 1 µM KDM4A1–359 and KDM4E1–
(§13) (NH4)2Fe(SO4)2, and 50 mM HEPES (pH 7.5), 1 mM TCEP, 0.02% (v/v) Triton-X . […]

A further test deals with KDM4E1–337. Nature of the test: MALDI–TOF MS product formation, KDM4E1–337. The test is classed as biochemical, human. The following applies: 60 min; for % product formation: 1 µM enzyme, 10 µM peptide. How it is done:
as §8, §9, §10, §11, §12, §13

As to “Ac - SGR [ me 2a ] GKQ GGKAR AKAKT R SSR [H2a(1–20)R3me2a, H2a(1–20)R3me2a without a biotin tag]”, the “+16 Da (% product formation)” value in the test on KDM5D (replicate 1) came to 0%; in the test with KDM5D (replicate 2), 0%; with KDM4B (replicate 1) it was 0%; in the test on KDM4B (replicate 2), 0%; with KDM4B (replicate 3), 0%; at KDM4E (replicate 1), 46.4339%. Further, the “+16 Da (% product formation)” value on KDM4E (replicate 2) was 45.4666%; on KDM4E (replicate 3) it was 46.4741%. Moreover, the “demethylation (% product formation)” value with KDM5D (replicate 1) is reported as 45.629%; in the test with KDM5D (replicate 2), 44.405%; in the test on KDM4B (replicate 1), 53.7655%; in the test on KDM4B (replicate 2), 51.9581%; in the test with KDM4B (replicate 3), 51.6457%; on KDM4E (replicate 1), 80.4205%. Also, the results for the “demethylation (% product formation)” value at KDM4E (replicate 2) and at KDM4E (replicate 3) were 73.9041% and 80.1859%, respectively. The RDM activity entry in the test with KDM4B (KDM4B catalytic domain) is given as “RDM activity was also observed”; on KDM4E (KDM4E catalytic domain), “highest RDM activity”. Further, the “+16 Da mass shift” value on KDM4E (2 µM KDM4E, 10 µM peptide, MALDI–TOF MS) is recorded as “A +16 Da mass shift occurs”. The “% product formation” value in the test with KDM4A1–359 (replicate 1) worked out at 16.7473%; in the test on KDM4A1–359 (replicate 2) it was 14.819%; in the test with KDM4E1–337 (replicate 1), 38.2963%; with KDM4E1–337 (replicate 2), 33.1012%. In the test with KDM4E1–337 (MALDI–TOF MS, n = 3), the “–14 Da mass shift (demethylation)” value is reported as “–14 Da mass shifts”.
